# Screen size: about 350,000 compounds; about 9,900 (2.8%) were called active. The inconclusive results got no clear call from the source; some entries with a clear call stand among them for comparison. The call rests on the fitted dose curve; in most records, active means well fitted activation curve with a large enough effect; inconclusive means small, poorly fitted or top-dose-only effect; inactive means no such curve, though single readings can be large or run the other way. Potencies of inconclusive entries are left out as doubtful fits.
# Test: A quantitative high throughput screen for small molecules that induce DNA re-replication in MCF 10a normal breast cells. Further: nearly all actives have a fitted effect of over 50% in size.
# Conditions: MCF 10A DNA re-replication, Hoechst nuclear intensity, 48 h; series mostly up to 46.1 µM
# Potency means the concentration at half of the fitted maximal effect; tags describe the fitted curve by direction and shape.
row,SMILES,Potency
1,Cn1c2ccccc2n2c(=O)c(=O)n(CC(=O)c3ccc(Cl)cc3)nc12,"inconclusive [activator, single point]"
2,FC(F)(F)c1cc(-c2ccco2)nc(-n2nnc3ccccc32)n1,"inconclusive [activator, full curve, poor fit]"
3,O=C(Nc1ccc(Cl)cc1)c1cc2nc(C3CC3)cc(C(F)(F)F)n2n1,active: 16.4 µM
4,COc1ccc(C(=O)NCc2ccccc2CN2CCCC2)cc1S(=O)(=O)N1CCOCC1,"inconclusive [activator, single point]"
5,COC(=O)c1sc(NC(=S)NC(=O)c2cc(OC)c(OC)c(OC)c2)nc1C,inactive
6,CCCCOc1ccc(CN=C(N)N)cc1Cl,"inconclusive [activator, single point]"
7,O=C(c1ccc2c(c1)OCO2)N1CCN(c2cccc(C(F)(F)F)c2)CC1,active: 11.6 µM
8,O=C(Cn1ncc2c3ccccc3n(Cc3ccccc3)c2c1=O)N1CCN(c2ccccn2)CC1,inactive
9,CC(=O)c1ccc(NC(=O)CSc2ccc3nnc(-c4cccnc4)n3n2)cc1,inactive
10,CC1CN(Cc2csc(-c3ccc(Cl)cc3)n2)CC(C)O1 (centres undefined),"inconclusive [activator, partial curve, poor fit]"
11,O=C(CNS(=O)(=O)c1ccc(Cl)cc1)N1CCN(c2ccc(F)cc2)CC1,"inconclusive [activator, single point]"
12,CC(C)Nc1nnc(SCC(=O)Nc2sccc2C#N)s1,inactive
13,Cc1cc(O)c(C(=O)/C=C/c2ccc(C(C)C)cc2)c(=O)o1,"inconclusive [activator, single point]"
14,OC(COc1c(F)cc(Br)cc1F)CN1CCN(c2ccc(F)cc2)CC1 (centres undefined),inactive
15,Cc1nn(-c2ccc(F)cc2)c2sc(C(=O)N3CCCCCC3)cc12,"inconclusive [activator, partial curve, poor fit]"
16,CCCCCCSc1cc(-c2nc3ccc(C)cn3c2NCCCC)ccc1OC,"inconclusive [activator, partial curve, poor fit]"
17,Cc1ccc(/C=C/C(=O)OCC(=O)NC(=O)NCc2ccco2)cc1,inactive
18,Cc1ccc(NC2=C/C(=N/S(=O)(=O)c3cccs3)c3ccccc3C2=O)cc1C,"inconclusive [activator, single point]"
19,Cc1c(C(=O)O)cnc2c([N+](=O)[O-])cnn12,inactive
20,C[C@H](NC(=O)c1nc[nH]c1C(=O)N[C@@H](C)c1ccccc1)c1ccccc1,"inconclusive [activator, full curve, poor fit]"
21,CC1Cc2ccccc2N1c1ncnc2c1nnn2Cc1ccccc1 (centres undefined),"inconclusive [activator, single point]"
22,CN1CCN(C2Cc3cc(Cl)ccc3Sc3cc(F)ccc32)CC1 (centres undefined),"inconclusive [activator, single point]"

row,SMILES,Potency
1,COc1ccc(CCNC(=O)c2nn(C)c3c2CS(=O)(=O)c2ccccc2-3)cc1OC,"inconclusive [activator, single point]"
2,COc1ccccc1NC(=O)c1ccc(-n2ccnc2)c([N+](=O)[O-])c1,"inconclusive [activator, single point]"
3,CC(=O)Nc1nc2c(s1)CCc1ccccc1-2,"inconclusive [activator, partial curve, poor fit]"
4,CC(C)C(=O)Nc1ccc(S(=O)(=O)Nc2nccc(/C=C/c3ccccc3)n2)cc1,"inconclusive [activator, single point]"
5,Cc1cc(NC(=O)COC(=O)c2ccc([N+](=O)[O-])cc2Cl)no1,inactive
6,COc1ccc(/C=N/NC(=O)c2cccc([N+](=O)[O-])c2)cc1OC(=O)c1ccc(C)cc1,"inconclusive [activator, partial curve, poor fit]"
7,O=C(O)CSc1ncccc1C(=O)O,active: 9.2 µM
8,Cc1onc(-c2ccccc2)c1C(=O)OCCOc1cccc(Cl)c1,active: 20.6 µM
9,CCC(=O)NCCc1nc2cc(NC(=O)c3ccco3)ccc2n1C,inactive
10,O=[N+]([O-])c1ccc(/C=N/NC(=S)Nc2ccc(Cl)cc2Cl)s1,"inconclusive [activator, single point]"
11,Brc1ccc(CN2CCN(Cc3c[nH]c4ccccc34)CC2)cc1,"inconclusive [activator, single point]"
12,O=C(NCN1CCOCC1)c1cnccn1,inactive
13,COCCCNCCOCCOc1ccc(Cl)cc1C(C)(C)C,active: 18.4 µM
14,COc1ccc(Cl)cc1C(=O)NNC(=S)NC1CCCC1,"inconclusive [activator, single point]"
15,COc1ccc(S(=O)(=O)c2c(C)c(NS(=O)(=O)c3ccccc3)cc(C)c2O)cc1,"inconclusive [activator, single point]"
16,OCCNc1nc(C2CC2)nc2c1nnn2Cc1ccccc1Cl,"inconclusive [activator, full curve, poor fit]"
17,Cn1c(=O)c2c(nc(CN3CCN(Cc4ccccc4)CC3)n2Cc2ccc(Cl)cc2)n(C)c1=O,"inconclusive [activator, single point]"
18,COc1ccc2c(c1)[C@H]1[C@H](CO2)[C@H](c2ccccc2)[C@]2(C)C(=O)Nc3cc(Cl)ccc3C(=O)N12,active: 16.4 µM
19,CCCOc1ccc(CSCCNC(=S)Nc2ccccc2)cc1,"inconclusive [activator, single point]"
20,O=C(NCc1ccccc1CN1CCCC1)C1CCN(S(=O)(=O)c2ccc(Cl)cc2)CC1,"inconclusive [activator, single point]"
21,Cc1ccc2nc3sc(C(=O)NCc4ccco4)c(N)c3cc2c1,"inconclusive [activator, partial curve, poor fit]"
22,Cn1cnc([N+](=O)[O-])c1Sc1nc(N)nc2c1ncn2C1OC(CO)C(O)C1O (centres undefined),active: 2.06 µM
